Assay results taken from US20170335016A1 (Kyowa Kirin, published 2017).

B1: multivalent antibody 281VL4-CH1-281 (bispecific antibody)
heavy: EVQLVQSGSELKKPGSSVKVSCKASGGTSRSFAISWVRQAPGQGLEWMGGIIPIFGPANYAQKFQGRVTITADESTSTAYMELSSLRSEDTAVYYCARHAIAMGWGVITTNYFDSWGQGTMVTVSSASTKGPSVFPLAPCSRSTSESTAALGCLVKDYFPEPVTVSWNSGALTSGVHTFPAVLQSSGLYSLSSVVTVPSSSLGTKTYTCNVDHKPSNTKVDKRVGSQVQLQESGPGLVKPSETLSLTCTVSGGSISGYYWSWIRQPPGKGLEWIGYIYYSGSTNYNPSLKSRVTISVDTSKNQFSLKLNSVTAADTAVYYCARAPLHGDYKWFHPWGQGTLVTVSSASTKGPSVFPLAPCSRSTSESTAALGCLVKDYFPEPVTVSWNSGALTSGVHTFPAVLQSSGLYSLSSVVTVPSSSLGTKTYTCNVDHKPSNTKVDKRV[human IgG4 Fc with changes omitted here]
light: [about 120 residues omitted here]
notes: Anti-CD28 site N-terminal, anti-CD40 site C-terminal; N5KG4PE (IgG4) vector; Entries probably still carry signal peptides
B2: multivalent antibody 281VL4-CH1(118-131)-281 (bispecific antibody)
heavy: EVQLVQSGSELKKPGSSVKVSCKASGGTSRSFAISWVRQAPGQGLEWMGGIIPIFGPANYAQKFQGRVTITADESTSTAYMELSSLRSEDTAVYYCARHAIAMGWGVITTNYFDSWGQGTMVTVSSASTKGPSVFPLAPCQVQLQESGPGLVKPSETLSLTCTVSGGSISGYYWSWIRQPPGKGLEWIGYIYYSGSTNYNPSLKSRVTISVDTSKNQFSLKLNSVTAADTAVYYCARAPLHGDYKWFHPWGQGTLVTVSSASTKGPSVFPLAPCSRSTSESTAALGCLVKDYFPEPVTVSWNSGALTSGVHTFPAVLQSSGLYSLSSVVTVPSSSLGTKTYTCNVDHKPSNTKVDKRV[human IgG4 Fc with changes omitted here]
light: [about 120 residues omitted here]
notes: as for B1
B3: multivalent antibody 281VL4-CH1(118-130)-281 (bispecific antibody)
heavy: EVQLVQSGSELKKPGSSVKVSCKASGGTSRSFAISWVRQAPGQGLEWMGGIIPIFGPANYAQKFQGRVTITADESTSTAYMELSSLRSEDTAVYYCARHAIAMGWGVITTNYFDSWGQGTMVTVSSASTKGPSVFPLAPQVQLQESGPGLVKPSETLSLTCTVSGGSISGYYWSWIRQPPGKGLEWIGYIYYSGSTNYNPSLKSRVTISVDTSKNQFSLKLNSVTAADTAVYYCARAPLHGDYKWFHPWGQGTLVTVSSASTKGPSVFPLAPCSRSTSESTAALGCLVKDYFPEPVTVSWNSGALTSGVHTFPAVLQSSGLYSLSSVVTVPSSSLGTKTYTCNVDHKPSNTKVDKRV[human IgG4 Fc with changes omitted here]
light: [about 120 residues omitted here]
notes: as for B1

Molecular target: T1, human-CD28-Fc fusion protein (human, UniProt P10747 19-152)
T1 construct: also called Fc fusion protein of the human-CD28 extracellular domain with IgG; hECD28-Fc
T1 sequence (P10747 19-152): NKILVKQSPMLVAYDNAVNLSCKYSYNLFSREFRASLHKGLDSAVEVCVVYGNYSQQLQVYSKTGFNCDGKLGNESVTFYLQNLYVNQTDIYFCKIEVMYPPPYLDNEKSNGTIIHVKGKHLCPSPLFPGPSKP
Assay: ELISA as in Example 19, human-CD28-Fc coated
Description: The human-CD4O-Fc fusion protein and the human-CD28-Fc fusion protein were adjusted to give a concentration of 1 μg/mL using coating buffer (50 mM carbonate buffer, pH 9). To a well, 50 μL/well of the obtained human-CD4O-Fc fusion prostein or the obtained human-CD28-Fc fusion protein was added into the Maxisorp Plate (manufactured by Nalge Nunc International) respectively, and incubated at 4° C. overnight to be immobilized. Then, 200 μL/well of blocking reagent (SuperBlock (registered trademark) Blocking Buffer, manufactured by Pierce Protein Research) was added to the well, followed by incubation at room temperature for 30 minutes for blocking. Then, 50 μL/well of the culture supernatant comprising each antibody obtained in above Examples was added to the well followed by incubation at room temperature for 1 hour. After washing three times with Washing buffer (0.1% Tween20-TBS), Affinity Isolated Antibody HRP Conjugated Goat F(ab)₂ anti-Human κ (manufactured by EY Laboratories Inc) was diluted with assay diluent (0.1% Tween20-TBS containing Block Ace manufactured by Dainippon Sumitomo Pharma Co. Ltd. by 10%). Then, 50 μL of the obtained solution was added to each well followed by incubation at a room temperature for 1 hour. After washing three times with washing buffer, 50 μL of TMB (manufactured by Dako) coloring substrate solution was added to each well, followed by incubation in a dark room at room temperature. After developping color, 0.5 M vitriol (50 μL/well) was added to stop the reaction. The absorbance at the wavelength of 450 nm was measured with a microplate reader (SPECTRAMAX190, manufactured by Molecular Devices Inc).
The binding of the produced antibody comprising two (CD40 and CD28) recognition sites for each antigen was measured in the same manner as Example 19.

Binding result, binds:
B1
B2
B3
